The source of these data is PubChem BioAssay (NCI).

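Test compounds were applied to cells in 96-well plates for 48 hours at 5 doses. GI50 marks 50% less growth. The concentration for full growth arrest is given as TGI.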

The test system of the experiment is NCI-H322M lung. Put plainly: NCI-60 cell line screen, 48 h.
As for `COc1ccc(/C=C/C(=O)c2ccc(OC)c(S(N)(=O)=O)c2)c(C(F)(F)F)c1`, the GI50 is 2.63 µM and the TGI was determined as 10.4 µM.

Regarding `COc1cc2cc(C(=O)N3C[C@@H](CCl)c4c3cc(OC(=O)N(CCC(=O)N3CCN(C)CC3)C3CCCCC3)c3ccccc43)[nH]c2c(OC)c1OC`, the GI50 was 1.55 µM and the TGI turned out to be 6.4 µM.

As to `CCCCCCn1c(O)c(N=Nc2nc(-c3cc4ccccc4oc3=O)cs2)c2ccccc21`, the GI50 is 15.8 µM and the TGI was 29.3 µM.

In the case of `C[C@H]1[C@H](OC(=O)CCC(=O)N(CCCc2cn(-c3ccc(CN4CCOCC4)cc3)nn2)CCNc2ccnc3cc(Cl)ccc23)O[C@@H]2OC3(C)CC[C@H]4[C@H](C)CC[C@@H]1[C@@]24OO3`, the GI50 was 6.41 µM and the TGI was > 11.8 µM.

As for `O=C(Cc1ccc2c(c1)CN(C1CCC(=O)NC1=O)C2=O)NCc1cccc2ccccc12` (stereo not given), the GI50 was < 0.01 µM and the TGI was determined as 0.0382 µM.
